The RNAGym collection of RNA variant scans (doi:10.1093/nar/gkz1192)
The source gives no read counts; variants with many changes may rest on few reads.

B1: CPEB3 Ribozyme (parent)
chain: UAACAGGGGGCCACAGCAGAAGCGUUCACGUCGCAGCCCCUGUCAGAUUCUGGUGAAUCUGCGAAUUCUGCUGUAUAUCUC

Variants of: B1
Assay: self-cleavage, relative activity (ratio to wild type); higher = more cleavage; in vitro, sequencing
Method in brief: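 Barcoded CPEB3 ribozyme mutants, produced by rounds of error-prone PCR, self-cleaved while being transcribed with T7 RNA polymerase for 5 hours at 37°C and during a subsequent 15 min DNase I step before EDTA was added. Sequencing of template-switched cDNA on Illumina gave cleaved and total reads, and DNA sequencing assigned barcodes to variants. Each variant's relative activity is its cleaved/total read fraction divided by the unmutated ribozyme's fraction, averaged across three batches. A variant needed a minimum of 5 reads.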

Variant | self-cleavage
A21G A28G U51C U54A A57G U60C U67A | 0.04
A21G A28G U54A | 0.23
A21G A28G U54C A64G | 0.1
A21G A28U U43C U72C U78C U80C | 0.11
A21G A28U U49C A77G | 0.33
A21G A35G A45G U49C U74A | 0.19
A21G A35G A57G U80C | 1.3
A21G A35G C40U U49A U72A U74C | 0.32
A21G A35G G36A G61A U78C | 0.33
A21G A35G G36C U54C A56G U60C | 0.12
A21G A35G U41G A57G U74A | 0.07
A21G A35G U41G C44G A56G U80A | 0.04
A21G A35G U43A | 1.1
A21G A35G U69C | 0.46
A21G A35U A45G U72C | 0.09
A21G A35U C40G U41C U60C | 0.11
A21G A35U U41C U72A | 0.08
A21G A35U U43C | 0.36
A21G A35U U51C | 0.09
A21G A35U U54C U78C | 0.15
A21G A45G A57G | 0.31
A21G A45G A64G | 0.32
A21G A45G A64G U76C | 0.36
A21G A45G G55C U58A A64G | 0.07

Variant | self-cleavage
A21G A45G U49A | 0.25
A21G A45G U51A A57G U58A U69C | 0.15
A21G A45G U69A | 0.12
A21G A45G U74A | 0.96
A21G A45G U78C | 0.53
A21G A45U A57G U58C | 0.22
A21G A45U U72C U76C | 0.14
A21G A45U U74A | 0.59
A21G A47G A77U | 0.61
A21G A47G U48A A64G U76A A77G | 0.08
A21G A47G U51C U80C | 0.51
A21G A47G U69C | 0.07
A21G A47U U58C U80C | 0.32
A21G A56G A64G U78C | 0.18
A21G A56G U58A U72C | 0.08
A21G A56G U60A U80C | 0.24
A21G A56G U60C A64C | 0.16
A21G A56U U69C | 0.07
A21G A57G U60G A65G | 0.24
A21G A57G U76C | 0.51
A21G A64U U74C | 0.1
A21G A65G A75U U76G | 0.26
A21G A75C A77U | 0.97
A21G C23A U48C A65G U67A U74C U78C | 0.05

Variant | self-cleavage
A21G C23G U43C | 0.1
A21G C23U C34G | 0.29
A21G C23U C34G C40U U60A U72C | 0.04
A21G C23U U49C A57G U69C U78C | 0.05
A21G C27G U60A A64G | 0
A21G C27U U31A A56U U67C U76A A77U | 0.06
A21G C27U U43C G52A A57G | 0.09
A21G C29U U31A U78A U80C | 0.08
A21G C29U U41A A47G U51A A56U U72A | 0.05
A21G C29U U48C U51C U78C U80C | 0.08
A21G C29U U60C | 0.19
A21G C32A A64U | 0.36
A21G C32A U51C | 0.11
A21G C32A U72C | 0.26
A21G C32U U51A | 0.26
A21G C32U U51A U67C | 0.1
A21G C32U U76C | 0.13
A21G C34G A47G | 0.18
A21G C34G U43A U58C C68U | 0.08
A21G C34G U72A | 0.12
A21G C34U A64G | 0.31
A21G C37G C40A A57U G63A U72C | 0.05
A21G C37U G46C U48C A56U A57G U76C | 0.04
A21G C37U U54C A64U | 0.1

Variant | self-cleavage
A21G C38A C62A | 0.26
A21G C38A U54A A56U | 0.22
A21G C38A U74C | 0.28
A21G C38U U48C A56G A65G U74A U76A | 0
A21G C39U A56G A57G | 0
A21G C40A A45G U80G C81U | 0.19
A21G C40A A45U A56G U78C | 0.08
A21G C40G U41A U69G | 0.13
A21G C62A A64G U67C U74C | 0.12
A21G C68G A77G | 0.17
A21G G22C U31A G33C G55C U74A U78A | 0.04
A21G G22U U49C A57G U67C U69A A77G | 0.04
A21G G24A A65G | 0.04
A21G G24A U43C U49A U51A U72C U74C | 0.04
A21G G24C G33A A75G | 0.05
A21G G24U A47G U76C A77G | 0.08
A21G G30A A65G | 0.25
A21G G30A U51C A56G U58C | 0.14
A21G G30A U58C | 0.06
A21G G30C A56G U69A | 0.13
A21G G33A A35G A56U A75U | 0.23
A21G G33A A35G U43C A47C U58C | 0.02
A21G G33A U41A U51C U72A | 0.06
A21G G33A U48C | 0.16

Variant | self-cleavage
A21G G33A U60C | 0.12
A21G G33A U69C U74C | 0.26
A21G G33C A35G C50A U78C | 0.06
A21G G36A U74C U76C | 0.31
A21G G36C G53C | 0.19
A21G G52A A65G | 0.26
A21G G53U U80C | 0.84
A21G G55A A64U C71G | 0.4
A21G G63C A64G U78A | 0.13
A21G U25A A28G | 0.11
A21G U25A A57G U72C U78C | 0.06
A21G U25A U41C C50G A56G U60C A77U | 0.08
A21G U25A U66G | 0.12
A21G U25C A28G | 0.58
A21G U25C A35G U48A U72A | 0.04
A21G U25C A35G U69A A75U | 0.08
A21G U25C A35G U76C U78A | 0.07
A21G U25C A64U U69A | 0.06
A21G U25C C27U A56G | 0.08
A21G U25C C29A C38A U54G A64G U80A | 0.05
A21G U25C G30U A64U | 0.06
A21G U25C G36A C38A G46A U49C C71A | 0.03
A21G U25C U26C A65G U67C | 0.16
A21G U25C U31C U67C A75G | 0.07

Variant | self-cleavage
A21G U25C U41A U48C | 0.31
A21G U25C U41G A64G A65U | 0.09
A21G U25C U43A A56U U78A | 0.07
A21G U25C U48C A57G U60C U76C | 0.35
A21G U25C U48C U78C U80C | 0.09
A21G U25C U54A | 0.16
A21G U25C U67C | 0.24
A21G U25C U69A | 0.33
A21G U25C U72C U76A | 0.28
A21G U25C U80C | 0.34
A21G U25G U31A C68U | 0.08
A21G U26A A64U U67C U69A U72C U80C | 0.09
A21G U26A G55U U67C | 0.08
A21G U26A U31C A65G U66C | 0.06
A21G U26A U41C A57U U67C | 0
A21G U26A U41C U49C A77U | 0.15
A21G U26A U41C U60C | 0.08
A21G U26A U54C U60C | 0.18
A21G U26A U72C | 0.45
A21G U26C A28G | 0.36
A21G U26C A35G U72C | 0.38
A21G U26C A47G U78C | 0.3
A21G U26C A47U U72C | 0.39
A21G U26C A56G U74G | 0.57

Variant | self-cleavage
A21G U26C A57G | 0.31
A21G U26C A77U | 0.17
A21G U26C C34G U69C | 0.33
A21G U26C C39U A64G | 0.11
A21G U26C C44A | 0.13
A21G U26C C50A A56C | 0.32
A21G U26C C62G C71A | 0.08
A21G U26C G33C | 0.17
A21G U26C G36A U69C | 0.06
A21G U26C G53C U54G | 0.18
A21G U26C U43C C50U U80C | 0.47
A21G U26C U54G | 0.22
A21G U26C U66C | 0.4
A21G U26C U80C | 0.45
A21G U26G G55A A65U | 0.07
A21G U26G U43C G53A U60C U66C | 0.21
A21G U31A A35G U69A | 0.56
A21G U31A A35U A57G | 0.09
A21G U31A A57G C81A | 0.31
A21G U31A A77U | 0.39
A21G U31A C38U U48C | 0.12
A21G U31C A47G | 0.19
A21G U31C U41C A65G | 0.14
